According to paper PMC7819943, “Rice protein-binding microarrays: a tool to detect cis-acting elements near promoter regions in rice”:
The other results are listed elsewhere or left out.

target: T1, OsWOX13 (Oryza sativa, UniProt Q5QMM3 1-267); test: protein-binding microarray (RPBM); PBS, 2% BSA, 51.3 ng/ul salmon testes DNA, 50 uM zinc acetate, 200 nM TF, 25 C, 1 h; high values mean tight binding; details: protein: recombinant; tags: N-terminal polyhistidine and DsRed monomer fusion (pET32a); label: CyDye5-dUTP incorporated in the synthesized complementary strand; 3' TTTTT single-stranded linker to array surface; dsDNA, one strand shown
T1 sequence: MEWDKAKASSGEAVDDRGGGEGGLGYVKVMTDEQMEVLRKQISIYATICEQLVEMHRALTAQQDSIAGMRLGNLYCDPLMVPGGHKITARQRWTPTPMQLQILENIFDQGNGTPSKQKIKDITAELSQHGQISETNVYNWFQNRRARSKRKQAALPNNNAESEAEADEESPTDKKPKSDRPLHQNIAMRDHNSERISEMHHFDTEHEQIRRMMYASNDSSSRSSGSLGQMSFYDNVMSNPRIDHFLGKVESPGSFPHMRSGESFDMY
How it was run: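 Binding signal is reported as fluorescence intensity per feature (arbitrary units) from an Axon 4000B scanner. Incubation used 200 nM of each Ni–NTA-purified, N-terminally polyhistidine- and DsRed-fused transcription factor from E. coli BL21-CodonPlus on a double-stranded custom Agilent array for 1 h at 25 °C, with 50 µM zinc acetate in the buffer, followed by washing.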

Sequence | binding signal
ACAATGGGCTTGATTACAATAGAATATCATTCAATATAGCCGGAGTCACCTAGTGCAG | 4210 fluorescence intensity (a.u.)
CAAATCAAGAAAATTTTCAATAACATTTCAACTATTGTAACGGAGTCACCTAGTGCAG | 3290 fluorescence intensity (a.u.)
GATTATAATGATCATTATTTGCTTTGTGAATGTGTAAAAGCGGAGTCACCTAGTGCAG | 7010 fluorescence intensity (a.u.)
CTCTTTAGACAGAAAACTATAAAGTGTTCCATTCACCTAACGGAGTCACCTAGTGCAG | 4040 fluorescence intensity (a.u.)
TTAATTAATCTATCTAATCAGATTGATTAATGCCTCCCTCCGGAGTCACCTAGTGCAG | 37800 fluorescence intensity (a.u.)
CACTAAATTACCCTCGCCATTTTGACGCCTCTGTCGTGGGCGGAGTCACCTAGTGCAG | 18700 fluorescence intensity (a.u.)
TATGTAATTATTGCTAGTGGATGATGATGTGGCATGGTTGCGGAGTCACCTAGTGCAG | 14700 fluorescence intensity (a.u.)
AGTACGGACTAATTAAATCCCGTGGAATTTTCAAGTCAAACGGAGTCACCTAGTGCAG | 3400 fluorescence intensity (a.u.)
CATCAAATTTAAACAGACAGATGATTCAGTTTATAATGAACGGAGTCACCTAGTGCAG | 21900 fluorescence intensity (a.u.)
ATACATAATTATTTAAGTATCTTTTAATAAAACGAACGGTCGGAGTCACCTAGTGCAG | 22200 fluorescence intensity (a.u.)
GCTGTACTGTAATTACATCTGTCAAACTTTTAGGAGAAAACGGAGTCACCTAGTGCAG | 20400 fluorescence intensity (a.u.)
CCATTTCTTGCTGATGATTGATGATGAACATTTCTAATAGCGGAGTCACCTAGTGCAG | 27400 fluorescence intensity (a.u.)
AGTTGTACACCAATCACCTGAATACTGTAATTCCTGACTTCGGAGTCACCTAGTGCAG | 5500 fluorescence intensity (a.u.)
TCATGAATTCTTCTGTTTTGATTGGATGTTAAGTTGTGTTCGGAGTCACCTAGTGCAG | 13100 fluorescence intensity (a.u.)
ATCACATAAATTTGCATGTTCCCTTATCTTAGATGAAATTCGGAGTCACCTAGTGCAG | 4770 fluorescence intensity (a.u.)
AAACAGATTATAGATTTAAACGCTCCTAGCACTATGCCACCGGAGTCACCTAGTGCAG | 11700 fluorescence intensity (a.u.)
ATTAATTAAGAGTTCAATTAGCTGGGCTGTCATGGAATGGCGGAGTCACCTAGTGCAG | 30700 fluorescence intensity (a.u.)
TGTTATCTCAATCGGACCCTAAATTGGAGCCCGTCACGTGCGGAGTCACCTAGTGCAG | 5520 fluorescence intensity (a.u.)
ACATGATAATACTTACTCAATCAAATACTACGAGCAACCTCGGAGTCACCTAGTGCAG | 4660 fluorescence intensity (a.u.)
GGTTAATTGCCTGTCTGCGTGGGAGTTACCTCCACACAGCCGGAGTCACCTAGTGCAG | 46200 fluorescence intensity (a.u.)
CAAAACTGAGTACATTGGATTGGACCATCTAAAAGGAAATCGGAGTCACCTAGTGCAG | 4580 fluorescence intensity (a.u.)

Sequence | binding signal
CCTTGCAATCATTCATCAGAGGAGGAGTTCTACAGTGATGCGGAGTCACCTAGTGCAG | 3760 fluorescence intensity (a.u.)
AAGAACCAATCAACCAACCATGCACCATCCAACGAAAATGCGGAGTCACCTAGTGCAG | 3910 fluorescence intensity (a.u.)
AATTTCACTGTTAACAGATAGGCATGCATTGGGTGAGAGTCGGAGTCACCTAGTGCAG | 3650 fluorescence intensity (a.u.)
ATAGTTTGATTACGTGCATTTTAATTATGTAGAGATTTGGCGGAGTCACCTAGTGCAG | 15000 fluorescence intensity (a.u.)
TTAATTGTAGTATAATTACGGTAAAATTATATTACAATTTCGGAGTCACCTAGTGCAG | 21100 fluorescence intensity (a.u.)
ACAAATTTATTGTTATCAATGATGGCCATGATTATTCGGTCGGAGTCACCTAGTGCAG | 38200 fluorescence intensity (a.u.)
TCATTAATTTGAAAGGGAAGATTAAGCTCAATGCAGGAGTCGGAGTCACCTAGTGCAG | 28800 fluorescence intensity (a.u.)
GTAGAAATTTGTTATATGATAATATTATAATTACTAGCTTCGGAGTCACCTAGTGCAG | 5320 fluorescence intensity (a.u.)
TTAAATGGTGAAGAAATTGAAGAAGGGGCTTCGATGGCAGCGGAGTCACCTAGTGCAG | 8370 fluorescence intensity (a.u.)
TTTTCATAAATTTGGATAAACAATCTAGTACTTACTGGGACGGAGTCACCTAGTGCAG | 3150 fluorescence intensity (a.u.)
ATTATTTAGTAAAATTGACAATCATGTTGTTGCATTTAGTCGGAGTCACCTAGTGCAG | 16000 fluorescence intensity (a.u.)
TCTGTAATTGAACGAGTCAATAGCTAGAGCTGTCAGACAGCGGAGTCACCTAGTGCAG | 20800 fluorescence intensity (a.u.)
TGTGACATGATTGTGTGTCCACCAATCTATGAAACATCATCGGAGTCACCTAGTGCAG | 37800 fluorescence intensity (a.u.)
TTTATGGTCTTCCAATCACGGGCCGTAATTAAGGCCTATGCGGAGTCACCTAGTGCAG | 25300 fluorescence intensity (a.u.)
CTAAACTGAAAATAGGAAATAAATAAGTTGATCTCCCTAACGGAGTCACCTAGTGCAG | 3750 fluorescence intensity (a.u.)
ATATAATTACATGTATCTATCTGAACGAACATGTACTGCGCGGAGTCACCTAGTGCAG | 26200 fluorescence intensity (a.u.)
ACATTCATATTGATGTTAATGATTCTAGACATATATATCTCGGAGTCACCTAGTGCAG | 4710 fluorescence intensity (a.u.)
CTTTGACTTAATATAACCACCACATTTGCCTTTTGACTTTCGGAGTCACCTAGTGCAG | 6940 fluorescence intensity (a.u.)
TGCTTAAATTTATAGCTTTCTAATAAATTTGTTCATTTAGCGGAGTCACCTAGTGCAG | 14700 fluorescence intensity (a.u.)
AAAACGGAATGATAGATTAACATATAATTAATTAAGTATTCGGAGTCACCTAGTGCAG | 19300 fluorescence intensity (a.u.)
TTAGATTGGATCATGACGCCAATGTTATTGGTGCTATTAGCGGAGTCACCTAGTGCAG | 33600 fluorescence intensity (a.u.)

Sequence | binding signal
CCTTAATTAATTAATTTCTAGATCTCAAGAGGGCAACAGACGGAGTCACCTAGTGCAG | 57200 fluorescence intensity (a.u.)
TTTAATTGCAACGAATTTAATGGTGTAATCGGATCATGATCGGAGTCACCTAGTGCAG | 22600 fluorescence intensity (a.u.)
TGAAAGATTAGATTTATAAAGTTATCCTGTTGGATCAGAACGGAGTCACCTAGTGCAG | 16000 fluorescence intensity (a.u.)
TCAATATGATTTTAGTGATATTATAAATATGTCGCTGGTCCGGAGTCACCTAGTGCAG | 4480 fluorescence intensity (a.u.)
ATGATAGATAGATATAGATGAGCAGGTGGAAATGAATGTGCGGAGTCACCTAGTGCAG | 27400 fluorescence intensity (a.u.)
TAATTTGATTTGTTATTATAGTATAATAGTTGAGGAATGACGGAGTCACCTAGTGCAG | 17300 fluorescence intensity (a.u.)
ATTGATTGGTCTATGAAAACAAGTTAGGCTCACATGCAACCGGAGTCACCTAGTGCAG | 47900 fluorescence intensity (a.u.)
CAAAATTAAGTTTTAAATTTTAAATTTTGGCAGTGCCTGACGGAGTCACCTAGTGCAG | 14800 fluorescence intensity (a.u.)
GTCTAATGTATAATCCATTATACCATGTCACTGACTTTGTCGGAGTCACCTAGTGCAG | 4340 fluorescence intensity (a.u.)
ATGATTGAACATGAAACTTTAGACTTAAAATCACACATTACGGAGTCACCTAGTGCAG | 35100 fluorescence intensity (a.u.)
AAGGGTAATTGTACGTGTGTTGTGAGTATCTATGTTTGTACGGAGTCACCTAGTGCAG | 6180 fluorescence intensity (a.u.)
CAAAATATAATTGTCCAAACACAATTAAGATTGTAGCTTGCGGAGTCACCTAGTGCAG | 16900 fluorescence intensity (a.u.)
ATTTAGATTCATTAACATCAATATAAATATGAAAGATGACCGGAGTCACCTAGTGCAG | 3850 fluorescence intensity (a.u.)
GCGCAATTATAATGGATCAAATTATTGGAGTATGGACACCCGGAGTCACCTAGTGCAG | 7360 fluorescence intensity (a.u.)
GACGTTGATCTGCTAATGACATATCCAATCGATTACGGGACGGAGTCACCTAGTGCAG | 3250 fluorescence intensity (a.u.)
GATTAATTGACTGATTAATTAATTAATTAAATCTCCTCCTCGGAGTCACCTAGTGCAG | 48100 fluorescence intensity (a.u.)
ATTTGATAATAAATCAAGTCACGATAAAATAAATGATAATCGGAGTCACCTAGTGCAG | 4950 fluorescence intensity (a.u.)
CAGCTAACCTTAATGGACAATGACGATGTAACTGAACTGCCGGAGTCACCTAGTGCAG | 7830 fluorescence intensity (a.u.)
GCATATTCCTAATGACAATCACTGCTTTCTTTTGATACTGCGGAGTCACCTAGTGCAG | 3670 fluorescence intensity (a.u.)
ATGTCAGGGCGGACGAATACTATATGCCACGTGAGCTAATCGGAGTCACCTAGTGCAG | 6450 fluorescence intensity (a.u.)
ATTGATTTGAATTCCAAATTTGTAATGATGTTGATCACCTCGGAGTCACCTAGTGCAG | 39400 fluorescence intensity (a.u.)

Sequence | binding signal
GCTTTATCCCGCCTTCAATCTGCCTCGATTGGATTGCTTCCGGAGTCACCTAGTGCAG | 4280 fluorescence intensity (a.u.)
TTTGATGAACTAGTTGATAGGTCCTTCTTGCAACCAACAGCGGAGTCACCTAGTGCAG | 17100 fluorescence intensity (a.u.)
GAGGATGATGATGATGATGAGTTCTCTCTTCACTTGCGTCCGGAGTCACCTAGTGCAG | 6630 fluorescence intensity (a.u.)
ATTTGCGCTACCAAGTGATTGACACTCCAGGGATCCTTGACGGAGTCACCTAGTGCAG | 15400 fluorescence intensity (a.u.)
TTTATCACTCAATTGACCCATCAATTCAGCTGGCTTACTCCGGAGTCACCTAGTGCAG | 6200 fluorescence intensity (a.u.)
CCATGATTAATTAATATTTAATAATAATATATGTTCTTCTCGGAGTCACCTAGTGCAG | 50700 fluorescence intensity (a.u.)
TGAAAATCGCATACTAATTAGCTATTAGTCATGAGCTCTTCGGAGTCACCTAGTGCAG | 9100 fluorescence intensity (a.u.)
ACAAGTTGTAATTTATAGAGTGATATATTACATATTGATCCGGAGTCACCTAGTGCAG | 9120 fluorescence intensity (a.u.)
AGTGTCTAAATTGGTAATCAAACTCCAACACTATTTCATACGGAGTCACCTAGTGCAG | 20300 fluorescence intensity (a.u.)
CACTTTGATTTTACACACATTGTCAAATATCCTACATAAACGGAGTCACCTAGTGCAG | 5030 fluorescence intensity (a.u.)
TTTCAATTTTAGTCAAACTTTCAATTTTAACGTGAAACTACGGAGTCACCTAGTGCAG | 3450 fluorescence intensity (a.u.)
TAGTAGATGGAGAATGTTTTAATTTATACTGAAACACGTTCGGAGTCACCTAGTGCAG | 3910 fluorescence intensity (a.u.)
CATTAACGGCTAGAAAATTGGTGGATGTGTATATCTGGATCGGAGTCACCTAGTGCAG | 5050 fluorescence intensity (a.u.)
TTACGGCTAATTATTCTTTCAGTGGTAGACGACGTACCCCCGGAGTCACCTAGTGCAG | 8580 fluorescence intensity (a.u.)
AGTTCAGATTTGACATATACAGATTCTAGACATTACCAGTCGGAGTCACCTAGTGCAG | 7040 fluorescence intensity (a.u.)
GGGATTAAATTGGGATCCTTGGCACAACTTAGACTCTCACCGGAGTCACCTAGTGCAG | 23800 fluorescence intensity (a.u.)
TGTGGTTTAATGATTTATAAATTTAAAATATGTAGGTTTTCGGAGTCACCTAGTGCAG | 12000 fluorescence intensity (a.u.)
AATGATTGCCCTTTTAGTGAACTCCAAATTGGGCGAAGTGCGGAGTCACCTAGTGCAG | 49700 fluorescence intensity (a.u.)
AATTAATTTGTCATTAGTAAATGTTTACTGTAGCACCACACGGAGTCACCTAGTGCAG | 42000 fluorescence intensity (a.u.)
CGTGTCAAATCTAAAATTTAAATTCGTATAAATTGTTCCACGGAGTCACCTAGTGCAG | 6860 fluorescence intensity (a.u.)
GAATGATTGTGGATGATGAAATAAATACTGCTCTTGTCAGCGGAGTCACCTAGTGCAG | 33400 fluorescence intensity (a.u.)
